In PubChem BioAssay AID485313 (National Center for Advancing Translational Sciences (NCATS), 2010):
Among all 320,000 compounds or so, about 7,600 (2.4%) were called active. The inconclusive results got no clear call from the source; some entries with a clear call stand among them for comparison. Calls come from the whole dose curve; as a rule, active = well fitted activation curve with a large enough effect; inconclusive = small, poorly fitted or top-dose-only effect; inactive = no such curve, though single readings can be large or run the other way. A potency beside an inconclusive call is a rough fit, not a confirmed value.

experiment: qHTS Assay for NPC1 Promoter Activators; settings: Huh7 NPC1 promoter luciferase reporter, 24 h; series mostly up to 9.22 µM; activation: at the top concentration; note: nearly all actives have a fitted effect of over 60% in size;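 for activation: reporter is driven by a mutant NPC1 promoter; % of control where 0% means no effect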
Outline: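 NPC1 promoter–luciferase Huh7 cells; 24 h compound; luminescence.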
Potency is the fitted concentration of half-maximal effect; tags give direction and shape of the fitted curve.

Potency, active:
O=C(/C=C/c1ccc([N+](=O)[O-])cc1)Nc1ncc([N+](=O)[O-])s1 0.0501 µM
CSc1ccccc1OCc1cc(C(=O)N[C@H]2CCCCNC2=O)no1 2.82 µM
O=C(O)c1cccc(COc2ccc3c(c2)CCC3)c1 3.55 µM
COc1ccc(NC(=O)c2ccc3nccnc3c2)cc1 3.98 µM
COc1ccc(-c2cc(-c3ccc(C)cc3)n[nH]2)c(O)c1 1.26 µM
CC(C)(C)c1ccc(C(=O)Nc2cccc([N+](=O)[O-])c2)cc1 2.51 µM
NC(=O)c1ccccc1OCC(=O)Nc1ccc(Cl)c(Cl)c1 0.355 µM
Cc1ccc(-c2nc(-c3cccnc3)no2)c(C)c1 2 µM
Cc1c(NC(=O)COC(=O)c2cc(-c3ccc(-c4ccccc4)cc3)nc3ccccc23)c(=O)n(-c2ccccc2)n1C 0.631 µM
Cc1ccc(C)c(S(=O)(=O)NC(C)C(=O)Nc2ccc(-c3nc4ccccc4s3)cc2)c1 (configuration not stated) 3.55 µM
Cc1cccc(NC(=O)c2ccc(N3CCCCC3)c([N+](=O)[O-])c2)n1 2.82 µM
CCOc1ccc2nc(NC(=O)c3cnccn3)sc2c1 0.794 µM
c1ccc2sc(-c3ccc4c(c3)OCO4)nc2c1 0.562 µM
O=C(/C=C/c1ccco1)Nc1ccc(N2CCCC2)cc1 3.55 µM
COc1ccc(/C=N/Nc2nc3ccccc3o2)cc1OC 2 µM

Potency, inconclusive:
CCCOc1ccc(CNC(=O)Cc2cccs2)cc1 2.82 µM [activator, partial curve]
CCOC(=O)Nc1ccc2nc(N3CCCCCC3)sc2c1 0.447 µM [activator, partial curve]
CN(C)c1ccc(/C=C2/SC(=O)N(CCN=C3NS(=O)(=O)c4ccccc43)C2=O)cc1 4.47 µM [activator, partial curve]
CCOC(=O)c1cnn(-c2ncnc3c2cnn3C)c1N 3.16 µM [activator, single point]
Cc1cccc(NC(=O)C2C3CCCCC32)c1 (configuration not stated) 2.51 µM [activator, partial curve]
Cc1ccc(Sc2ncccc2COC(=O)NC(C)C)cc1 3.98 µM [activator, partial curve]
COc1ccc(OCc2cc(C(=O)O)c(C)o2)cc1 0.316 µM [activator, partial curve]
CCc1ccc(Nc2nnc(SCC(=O)Nc3cccc(S(=O)(=O)NC4=NCCCCC4)c3)s2)cc1 5.62 µM [activator, single point]
Cc1ccccc1OCCCn1c(=O)sc2ccccc21 3.55 µM [activator, single point]
CN(Cc1ccccc1)C(=O)CC(=O)N(C)Cc1ccccc1 3.55 µM [activator, single point]
C/C(N)=C(/C#N)C(=O)CSc1nnc(NC(C)C)s1 6.31 µM [activator, partial curve]
Cc1ccc(/C=C\c2nccc3c2[nH]c2ccccc23)cc1 3.55 µM [activator, partial curve]
CCOC(=O)COn1c(-c2cccc(Cl)c2)nc2ccc([N+](=O)[O-])cc21 3.55 µM [activator, partial curve]
O=C(Cc1ccccc1[N+](=O)[O-])NCc1ccc2c(c1)OCO2 3.16 µM [activator, single point]
O=C(Nc1nc(-c2cccs2)cs1)C1=COCCO1 5.62 µM [activator, single point]
COc1nc(-c2ccccc2)nnc1-c1ccccc1 5.62 µM [activator, single point]
N[C@@H](Cc1ccc(F)cc1)C(=O)O 16.4 µM [activator, single point]
Cc1[nH]n(-c2ccccc2)c(=O)c1N=Nc1ccc2c(c1)OCCO2 3.55 µM [activator, single point]
CCCCc1ccc(NC(=O)CC(C)(C)C)cc1 3.16 µM [activator, partial curve]
CCCn1nnc(NC(=O)c2ccccc2Br)n1 3.55 µM [activator, single point]
OC(COc1ccc2ccccc2c1Cl)CN1CCOCC1 (configuration not stated) 5.62 µM [activator, single point]
COC(=O)c1[nH]c2ccc(Br)cc2c1NC(=O)Oc1ccccc1 5.62 µM [activator, single point]
Cc1snc(SCC(=O)c2ccc(F)cc2)c1C#N 3.16 µM [activator, single point]
Cc1cccc(/C(N)=N/OC(=O)c2ccco2)c1 3.16 µM [activator, partial curve]
CN(c1ccc(C(=O)N2CCOCC2)cc1[N+](=O)[O-])C1CCCCC1 3.16 µM [activator, partial curve]
CCOc1ccc(C(=O)c2cccs2)cc1 3.16 µM [activator, partial curve]
CCCC(=O)Nc1ccc(-c2nc3cc(C)c(C)cc3o2)c(O)c1 0.562 µM [activator, full curve]
CN(C)/C=C/C(=O)/C=C/c1ccc(Cl)cc1 3.55 µM [activator, partial curve]
O=C(CSCc1ccccc1F)NCc1ccccc1 3.16 µM [activator, partial curve]
Clc1ccc2oc(-c3cccnc3)nc2c1 2.82 µM [activator, partial curve]
CC1CCC(NC(=O)c2cc3ccccc3cc2O)CC1 (configuration not stated) 3.98 µM [activator, single point]
Cc1snc(SCC(=O)c2ccc(Cl)cc2)c1C#N 3.55 µM [activator, partial curve]
Cc1nn(CCOc2ccccc2)c(=O)n1-c1ccc(F)cc1 2 µM [activator, partial curve]
C=CCNc1nc(N)c(C(=O)Nc2cc(C)on2)s1 3.55 µM [activator, partial curve]
C=CCn1c(C)cc(C(=O)COC(=O)[C@@H](NC(=O)c2ccccc2Cl)C(C)C)c1C 2.24 µM [activator, partial curve]
CCOC(=O)c1cc2ccc3ccccc3c2s1 3.55 µM [activator, single point]
N#CCSc1ccc(-c2nc3ccccc3[nH]2)cn1 3.16 µM [activator, partial curve]
O=C(CCCn1c(=O)oc2ccccc21)N1CCN(c2ccccn2)CC1 3.98 µM [activator, single point]
COc1ccc(-n2nc([N+](=O)[O-])c(=NCCCN3CCCC3=O)n2O)cc1 3.55 µM [activator, partial curve]
CC(C)(C)c1ccc(-c2cc(C(=O)NNC(=O)Nc3ccccc3)c3ccccc3n2)cc1 1.58 µM [activator, partial curve]
COC(=O)c1ccc(N2CCCCC2)c(N)c1 3.55 µM [activator, partial curve]
Fc1cc(Br)ccc1NC(=S)Nc1ccccc1 4.47 µM [activator, single point]
CC(C)c1ccc(NC(=O)N2CCc3ccccc3C2)cc1 3.55 µM [activator, partial curve]
Cc1cc(C)nc(Nc2n[nH]c(-c3ccccc3Br)n2)n1 3.55 µM [activator, single point]

activation, inactive:
CCN(CC)S(=O)(=O)c1cccc(-c2nnc(SCc3nc4ccccc4s3)o2)c1 13.9%
O=C(CSc1nnc(-c2ccccc2)o1)Nc1ccccc1F 22.8%
COc1ccccc1CCNC(=O)C(=O)Nc1cc2c3c(c1)C(C)C(=O)N3CCC2 (configuration not stated) -2.65%
CCSC1=C(C#N)C2(CCCCC2)C(C#N)=C(N)N1 -4.64%
CC(=O)c1ccc(NC(=O)COc2ccccc2C(=O)Nc2ccccc2)cc1 12.5%
CCN1C(=O)c2cccc3c(S(=O)(=O)NCc4ccccc4)ccc1c23 0.287%
c1ccc2c(CCNc3ncnc4nc[nH]c34)cccc2c1 -1.39%
COc1ccc(-n2cc(C#N)c(=O)n(Cc3ccc(F)cc3)c2=O)cc1 -10.9%
CCCOc1ccc(C(=O)Nc2ccc(S(=O)(=O)Nc3cc(C)nc(C)n3)cc2)cc1 0.948%
CN(C)S(=O)(=O)c1ccc(N2CCCC2)c(C(=O)NNC(=O)c2ccccc2)c1 -6.91%
COc1ccc(/C=C2/C(=O)N(c3c(F)c(F)c(F)c(F)c3F)N=C2C)cc1 1.86%
COc1ccc(NC(=O)CSCC(=O)OCc2cccc(OC)c2OC)cc1 -5.02%
CCc1ccccc1NC(=S)N1CCNC(=O)C1CC(=O)OC (configuration not stated) -4.73%
c1ccc2c(c1)OCC(c1nnc3sc(-c4cnccn4)nn13)O2 (configuration not stated) 3.08%
CN(C(=O)c1ccc(NC(=O)Cc2ccc(NC(=O)C3CCCN(C(=O)C4CC4)C3)cc2)cc1)C1CC1 (configuration not stated) -0.292%
CC(=Nc1ccc(C)c(C)c1)C1=C(O)CSC1=O 20.6%
COc1ccc(CNC(=O)CSc2ccc(Br)cc2)cc1OC 1.66%
CCOC(=O)N1CCC(NCCNC(=O)c2ccc(F)c(F)c2)CC1 2.03%
